# In PubChem BioAssay AID445 (National Center for Advancing Translational Sciences (NCATS), 2006):
# Out of some 110,000 compounds screened, about 40 (0.04%) were called active. This list was built around the results that the source calls inconclusive (neither active nor inactive); the mix of calls is not that of the screen. Calls follow the shape of the dose curve; as a rule, active = well fitted curve in the direction sought with a large enough effect in the signal ratio (not every such curve was filed as active); inconclusive = small, poorly fitted or top-dose-only effect, or a change in a side signal; inactive = flat fitted curve, though single readings scatter; the % refers to the signal ratio. Potencies of inconclusive entries are doubtful fits and often do not repeat.
# Experiment: IkB Signaling;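 as to IkBa stabilization activation: 0% = basal untreated cells and 100% = reference inhibitor full response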
# Settings: ABC-DLBCL IkBa-CBG/CBR dual luciferase ratio (green luciferase fused to IkBa over red control in OCI-Ly3 lymphoma cells), 4 h; IkBa stabilization activation: at 57.1 µM (top of the series), scaled: untreated 0%, proteasome inhibitor 100% unless noted
# In short: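 Luminescence ratio of IκBα-fused green versus native red beetle luciferase in OCI-Ly3 cells, 4 h post-doxycycline with compound; red signal alone, scaled from basal (0%) to zero light (-100%), flagged nonspecific or cytotoxic effects.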
# Potency is read from the fitted curve at half-maximal effect.
SMILES,IkBa stabilization activation,Potency
O=C(NC1CCCCCC1)c1ccc2c(c1)sc1nc(-c3ccccc3)cn12,inconclusive: -0.337% [signal inhibitor],–
CC1CN(c2nc(-c3ccccc3)nc3ccccc23)CC(C)O1 (configuration not stated),inconclusive: 0.132% [signal inhibitor],–
C=CCn1c(SCCCc2ccccc2)nc2c1c(=O)[nH]c(=O)n2C,inconclusive: 5.24% [signal inhibitor],–
C=C(C)CSc1nc2sc3c(c2c(=O)n1-c1ccccc1)CCC(C)C3 (configuration not stated),inactive: 4.38%,–
CCN1CCN(c2ncnc3c2cnn3-c2ccc(C)cc2)CC1,inactive: -0.775%,–
Clc1ccc2nc(SCc3nnc(-c4ccccc4)o3)[nH]c2c1,inconclusive: 3.26% [signal inhibitor],–
Cn1c(=O)c(-c2ccc(F)cc2)nc2cnc(Oc3ccccc3)nc21,"inactive: -0.953% [at 11.4 µM, scaled: untreated 0%, proteasome inhibitor 100%]",–
COc1ccccc1Nc1nn2c(=O)c3ccc(C(=O)NCc4ccc(F)cc4)cc3nc2s1,inactive: -0.551%,–
COc1ccc(CCNC(=O)c2ccc(CS(=O)(=O)Cc3cccc(C)c3)o2)cc1OC,inconclusive: -0.788% [signal inhibitor],–
CCN1CCN(C(c2ccc(F)cc2)c2c(O)cc(C)n(CCOC)c2=O)CC1 (configuration not stated),inactive: 1.74%,–
COC(=O)c1ccc(NC(=O)c2sc3nc(-c4ccccc4)cn3c2C)cc1,inconclusive: 13.3% [signal inhibitor],–
CNC(=O)c1cc2c(=O)n3cc(C)ccc3nc2n(Cc2ccco2)c1=N,–,"inconclusive: 25.1 µM [signal inhibitor, partial curve]"
CC(C)CCNC(=O)C1CCN(C(=O)N2CCOc3ccc(Cl)cc32)CC1,inconclusive: 9.39% [signal inhibitor],–
COc1ccc(C(=O)Nc2ccc(-c3cc4ccccc4oc3=O)c(C)c2)cc1OC,inconclusive: 9.51% [signal inhibitor],–
COc1ccccc1-n1c(/C=C/c2c(C)n(C)c3ccccc23)nc2ccccc2c1=O,inactive: 4.08%,–
CCOc1ccc(OCC(=O)Nc2nnc3n2CCS3)cc1,inactive: -2.55%,–
COc1ccc(-c2noc(CSc3nnc(-c4ccncc4)n3-c3ccc(C)cc3)n2)cc1,inconclusive: 0.472% [signal inhibitor],–
O=C(CN1C(=O)COc2ccccc21)N(Cc1cccnc1)Cc1ccccc1F,inactive: 0.814%,–
C=CCn1c(=O)n(CC=C)c(=O)n(CC=C)c1=O,inactive: -0.031%,–
COc1cccc(CNC(=O)C2CCC(CNS(=O)(=O)c3ccc(Br)s3)CC2)c1 (configuration not stated),inconclusive: 10.1% [signal inhibitor],–
CCOC(=O)C(Cc1c[nH]c2ccccc12)NC(=O)COc1ccc(Cl)c(C)c1 (configuration not stated),–,"inconclusive: 39.8 µM [signal inhibitor, single point]"
COc1ccc(C(c2c(O)ccc3ccccc23)N2CCOCC2)c(OC)c1 (configuration not stated),inconclusive: -5.78% [signal inhibitor],–
CC(Oc1ccc(Cl)cc1Cl)c1nc(-c2ccc(NC(=O)c3cccnc3)cc2)no1 (configuration not stated),inconclusive: 1.82% [signal inhibitor],–
CCOc1ccc(NC(=O)CSC2=Nc3ccccc3C3=NC(CC(=O)NCc4ccco4)C(=O)N23)cc1 (configuration not stated),inconclusive: 2.48% [signal inhibitor],–

SMILES,IkBa stabilization activation,Potency
Cc1cc2ccccc2n1CCNC(=O)c1cccc(Cl)c1,inconclusive: -0.435% [signal inhibitor],–
Cn1c(CNc2cccc(Cl)c2)nnc1SCC(=O)OC1CCCCC1,inconclusive: 1.28% [signal inhibitor],–
CC(C)c1ccc(NC(=O)c2cc(S(=O)(=O)NCc3ccccc3Cl)ccc2F)cc1,inconclusive: 1.87% [signal inhibitor],–
Cc1ccc(-c2cc(C(=O)N3CCN(C(=O)c4ccco4)CC3)no2)cc1,inconclusive: 0.771% [signal inhibitor],–
N#Cc1c[nH]n2c(NC3CCCC3)c(-c3cccc(Cl)c3)nc12,inconclusive: 2.31% [signal inhibitor],–
Cc1ccc(N(CC(=O)Nc2ccc(C)c(F)c2)S(=O)(=O)c2c(C)n[nH]c2C)cc1,inconclusive: 1.44% [signal inhibitor],–
CCOc1cc(C(=O)N2CCc3c([nH]c4ccccc34)C2c2ccccc2)cc(OCC)c1OCC (configuration not stated),inconclusive: 1.59% [signal inhibitor],–
Cc1cc(C)cc(N(CC(=O)O)S(=O)(=O)c2cccnc2)c1,inactive: 3.68%,–
Cc1ccc(C(=O)OCC(=O)Nc2ccc3c(c2)OCO3)o1,inactive: -0.89%,–
COc1ccc(C)cc1NC(=O)Cn1c(=O)ccc2cc(S(=O)(=O)N3CCCC3)ccc21,inconclusive: 3% [signal inhibitor],–
CCOC(=O)c1sc2ncn(CC(=O)Nc3ccc(C)cc3Br)c(=O)c2c1C,inactive: 0.937%,–
CN(C)c1nc(Oc2ccc(C(=O)OCC(=O)Nc3ccccc3)cc2)nc(N(C)C)n1,inconclusive: -3.39% [signal inhibitor],–
CCCCOc1ccc(NC(=O)Cn2nnnc2-c2ccccc2F)cc1,inactive: -0.0558%,–
O=C(CCC1N=C2c3ccccc3N=C(SCc3ccc(Cl)cc3)N2C1=O)NCc1ccco1 (configuration not stated),inactive: -1.39%,–
COCCN(CCOC)Cc1c(O)ccc2c3c(c(=O)oc12)CCC3,inactive: -4.75%,–
CCCCC(=O)NCCc1cc2c(C)ccc(C)c2[nH]c1=O,inactive: -0.506%,–
CCCCOc1ccccc1NC(=O)CC1SC(=NCC)N(CC)C1=O (configuration not stated),inconclusive: -0.735% [signal inhibitor],–
Cc1ccc(S(=O)(=O)c2nc(-c3ccco3)oc2SCC(C)C)cc1,inconclusive: 1.73% [signal inhibitor],–
Cc1ccc(-c2nc(-c3cccnc3)no2)c(C)c1,inactive: 0.0162%,–
COc1ccc2ncc3c(-c4ccc(C)c(C)c4)nn(CC(=O)NC4CCCCC4)c3c2c1,inactive: 0.469%,–
O=C(Cc1ccc(NC(=O)N2CCCCc3ccccc32)cc1)NCc1ccccc1,inconclusive: 0.55% [signal inhibitor],–
COc1ccccc1CNC(=O)c1ccc(-c2nc(CS(=O)c3ccccc3)c(C)o2)cc1 (configuration not stated),inactive: 1.32%,–
CCCCn1cc(S(=O)(=O)c2ccc(F)cc2)c(=O)c2ccccc21,inconclusive: 2.28% [signal inhibitor],–
